Data on 110 sequences can be found in PMC10668032.

This is one part of the list. At the low end of the ranking the order means little.

The assay deals with SIX1 homeodomain (reference allele) (UniProt Q15475). Briefly: universal protein binding microarray. To be noted: Universal all-10-mer PBM (8x60K, AMADID 030236), 300 nM GST-tagged protein, Alexa Fluor 488 anti-GST; buffer, salt, pH and temperature not stated; high values mean tight binding; most listed sequences are background and not binding sites; double strand, one strand shown.
For the sequence CGATCGAA, the binding signal is 0.0968 E-score. Next, AACTGACC: -0.162 E-score. Consider AGCTTGAT, for which the binding signal came to 0.186 E-score.

With GTGAGCAA, the binding signal was -0.00787 E-score. For the sequence AGTTATCA, the binding signal was determined as 0.119 E-score. The figure for GACTAATA is 0.144 E-score; for ACTGAACA it is -0.0599 E-score. Next, CAACCTGG: 0.0307 E-score; CAGTTTCC: -0.24 E-score; GGGGGGAC: -0.258 E-score. Next, CAATAGTG: 0.0137 E-score.

In the case of CTACTGTA, the binding signal amounted to 0.165 E-score. Regarding ACCATGCC, the binding signal is -0.0639 E-score. Next, ATACTTCG: 0.304 E-score; CCGGGACA: -0.0617 E-score.

For CGAGGTAC, the binding signal is -0.137 E-score. Next, AAACATCC: -0.00493 E-score; ACCTCCTA: 0.004 E-score. Take AATAGCCG: the binding signal was -0.105 E-score. The figure for TCGGAAAA is -0.132 E-score; for CAAACTTC it is -0.315 E-score; for TCGTCCCA it is -0.13 E-score.

Take GCGACGCA: the binding signal was -0.0979 E-score. The figure for AATTTCGT is -0.188 E-score; for AGTATATC it is 0.383 E-score. Next, GAGAAACA: -0.157 E-score; AAGGAATT: -0.185 E-score.

Turning to AATGGGAC, the binding signal is -0.231 E-score.

As for CACGCGAA, the binding signal is -0.214 E-score. The figure for AACGACAC is 0.276 E-score; for GACTTTAA it is -0.172 E-score.

In the case of ATGCCCAA, the binding signal was -0.0747 E-score.

Consider CTCCAATA, for which the binding signal is 0.0224 E-score. On to AATATCGC, for which the binding signal came to 0.299 E-score. Next, ATGACGTA: 0.0659 E-score; GTCAATAA: -0.0302 E-score; AGTCCATC: -0.0448 E-score.

With CGCCGAAG, the binding signal was -0.12 E-score. The figure for TATGTCGA is -0.0346 E-score; for CTGGGATA it is 0.266 E-score. The figure for AGCCTGTA is 0.0353 E-score. The figure for TGGAGAAA is -0.3 E-score.

Consider CCATATGC, for which the binding signal is 0.159 E-score. Next, ACCGTAAT: 0.0213 E-score; CTTGGAAC: -0.112 E-score. Next, CCGTTACG: -0.14 E-score; ATTGCGGC: -0.161 E-score; ACTGAGTG: -0.00266 E-score. The figure for GAGTCTGA is -0.248 E-score.

On to TAGTATCA, for which the binding signal amounted to 0.457 E-score.

With GGACAAGA, the binding signal was -0.0999 E-score.

With GGTAAATA, the binding signal was -0.0336 E-score.

For the sequence GACCCCAA, the binding signal is 0.11 E-score. The figure for CACCCTCA is -0.00249 E-score; for CGACACAA it is -0.169 E-score. For CTGCAGAA, the binding signal was -0.191 E-score. The figure for ACTAATCC is 0.228 E-score; for ACGGCACA it is -0.147 E-score. The figure for AGATACGG is 0.401 E-score; for AGGACCCG it is -0.204 E-score; for CGAATAGC it is -0.00541 E-score. Consider GGTTGGGA, for which the binding signal was -0.0993 E-score. The figure for ACGTCTCT is -0.198 E-score; for AATCGTCC it is -0.158 E-score.

In the case of ACGCTCGA, the binding signal was -0.0395 E-score. Take AAGCAAAT: the binding signal was -0.299 E-score.

AGCCGCAT: the binding signal was -0.0491 E-score. The figure for TCCCTAAA is -0.0332 E-score; for CATTTACA it is -0.121 E-score; for CACTCGGC it is 0.0257 E-score. Next, CAAAGTAG: 0.0182 E-score; GACCCATC: 0.13 E-score; ATCGACAC: 0.306 E-score. Next, TCGAGAAA: -0.0533 E-score; CCTTTATC: -0.0131 E-score; ACTTGACC: -0.22 E-score.

GCGAATAA: the binding signal is -0.153 E-score. The figure for AACCGGTG is 0.056 E-score. Next, ATCCCCTC: 0.387 E-score; CCGCTGGC: -0.11 E-score; AGCTACGA: -0.261 E-score.

On to ACGCAAAC, for which the binding signal is -0.0502 E-score. The figure for ATTGTTTA is -0.142 E-score.

Turning to GAACCTTC, the binding signal is -0.173 E-score. Next, ACATCGAT: 0.144 E-score; AATTGGTA: 0.00128 E-score; CCAGGCCA: -0.248 E-score.

For AGCTAGTG, the binding signal is -0.0267 E-score. With AATTACGT, the binding signal is -0.301 E-score. Turning to CGGTTGAC, the binding signal is -0.174 E-score. The figure for AATCCGCC is 0.212 E-score. For the sequence GGTCTGCA, the binding signal was -0.135 E-score. Next, CTTTGCTA: -0.159 E-score; CGCCGACG: -0.194 E-score; AAGGCTGC: -0.174 E-score.

For AAAAGTCG, the binding signal was -0.269 E-score. Next, AATAAATC: -0.0374 E-score.

In the case of TTCGAGAA, the binding signal was -0.122 E-score.

Turning to CATAAAGA, the binding signal was -0.258 E-score. Next, AGGATATA: 0.346 E-score; CTCACTTA: -0.0385 E-score; ATTAAGGC: -0.0426 E-score. The figure for GTGAAGAA is -0.134 E-score; for AAGGAATG it is -0.254 E-score. The figure for CTCGCATA is -0.0441 E-score; for GCCATAAC it is -0.287 E-score; for GATGAAGC it is 0.0137 E-score. Turning to CTAGCCAG, the binding signal was -0.157 E-score.

Turning to CATGAAGG, the binding signal came to 0.114 E-score.

In the case of GAAAACCA, the binding signal is -0.145 E-score.
